The record followed here is publication PMC12820563, “FoxP3 forms a head-to-head dimer in vivo and stabilizes its multimerization on adjacent microsatellites”.

Some of the results follow.

This assay addresses T1, MBP-FoxP1dN (Mus musculus, UniProt P58462 326-579).
T1 sequence: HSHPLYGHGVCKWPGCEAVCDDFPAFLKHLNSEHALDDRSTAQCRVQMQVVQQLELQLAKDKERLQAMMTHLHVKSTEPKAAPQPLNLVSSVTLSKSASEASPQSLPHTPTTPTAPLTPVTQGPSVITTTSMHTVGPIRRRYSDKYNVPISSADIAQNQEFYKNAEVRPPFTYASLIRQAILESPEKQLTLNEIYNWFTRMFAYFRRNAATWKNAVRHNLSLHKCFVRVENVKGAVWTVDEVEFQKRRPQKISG
Put plainly: PD-seq (MBP pull-down with sequencing); 20 mM Tris-HCl pH 7.5, 100 mM NaCl, 1.5 mM MgCl2, 0.4 uM protein, 0.1 uM dsDNA library, 30 min, room temperature, amylose pull-down; high values mean tight binding. Conditions: protein: recombinant; tags: His6-MBP; chain copies: 2; dsDNA, one strand shown. Summed up:
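In Tris pH 7.5 buffer with NaCl and MgCl2, 0.4 µM His6-MBP-tagged mouse FoxP3 or FoxP1 fragment lacking the N-terminus, from E. coli, met 0.1 µM Klenow-filled double-stranded degenerate DNA library for 30 min at room temperature. Three washes on amylose resin followed capture of the complexes, then proteinase K release of DNA, PCR barcoding and Illumina sequencing. Binding is taken as pooled-replicate reads-per-million enrichment of pull-down relative to input.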
Consider “GATGATTGTTCTCCCAGCTGATGAATTGGCGCATTCGAGTAAACAAATTTTCCTAATCTTTCTGTTCAAGCGCCATCTAC”, for which the binding signal was 1.27 RPM ratio (pull-down/input).

Regarding “GATGATTGTTCTCCCAGCTGATGAATTTTGCGCGTCGAGTAAACAAATTTTCCTAATCTTTCTGTTCAAGCGCCATCTAC”, the binding signal is 1.04 RPM ratio (pull-down/input).

Take “GATGATTGTTCTCCCAGCTGATGAATTGATGTACTCGAGTAAACAAATTTTCCTAATCTTTCTGTTCAAGCGCCATCTAC”: the binding signal was 1.14 RPM ratio (pull-down/input).

As for “GATGATTGTTCTCCCAGCTGATGAATTTCCCTTATCGAGTAAACAAATTTTCCTAATCTTTCTGTTCAAGCGCCATCTAC”, the binding signal is 0.876 RPM ratio (pull-down/input).

On to “GATGATTGTTCTCCCAGCTGATGAATTAAACAATTCGAGTAAACAAATTTTCCTAATCTTTCTGTTCAAGCGCCATCTAC”, for which the binding signal is 1.64 RPM ratio (pull-down/input).

Consider “GATGATTGTTCTCCCAGCTGATGAATTATGCTCCTCGAGTAAACAAATTTTCCTAATCTTTCTGTTCAAGCGCCATCTAC”, for which the binding signal is 1 RPM ratio (pull-down/input).

On to “GATGATTGTTCTCCCAGCTGATGAATTACGTAGTTCGAGTAAACAAATTTTCCTAATCTTTCTGTTCAAGCGCCATCTAC”, for which the binding signal is 1.02 RPM ratio (pull-down/input).

Regarding “GATGATTGTTCTCCCAGCTGATGAATTAACCTCGTCGAGTAAACAAATTTTCCTAATCTTTCTGTTCAAGCGCCATCTAC”, the binding signal was 0.928 RPM ratio (pull-down/input).

With “GATGATTGTTCTCCCAGCTGATGAATTTAAGACCTCGAGTAAACAAATTTTCCTAATCTTTCTGTTCAAGCGCCATCTAC”, the binding signal was 0.791 RPM ratio (pull-down/input).

For the sequence “GATGATTGTTCTCCCAGCTGATGAATTCAACACCTCGAGTAAACAAATTTTCCTAATCTTTCTGTTCAAGCGCCATCTAC”, the binding signal is 0.962 RPM ratio (pull-down/input).

As for “GATGATTGTTCTCCCAGCTGATGAATTCCCCTAGTCGAGTAAACAAATTTTCCTAATCTTTCTGTTCAAGCGCCATCTAC”, the binding signal was 0.812 RPM ratio (pull-down/input).

Regarding “GATGATTGTTCTCCCAGCTGATGAATTTGGTATTTCGAGTAAACAAATTTTCCTAATCTTTCTGTTCAAGCGCCATCTAC”, the binding signal is 1.07 RPM ratio (pull-down/input).

For “GATGATTGTTCTCCCAGCTGATGAATTATAGCACTCGAGTAAACAAATTTTCCTAATCTTTCTGTTCAAGCGCCATCTAC”, the binding signal was 0.987 RPM ratio (pull-down/input).

Regarding “GATGATTGTTCTCCCAGCTGATGAATTGCTGACATCGAGTAAACAAATTTTCCTAATCTTTCTGTTCAAGCGCCATCTAC”, the binding signal is 1.25 RPM ratio (pull-down/input).

Take “GATGATTGTTCTCCCAGCTGATGAATTCAGCTGTTCGAGTAAACAAATTTTCCTAATCTTTCTGTTCAAGCGCCATCTAC”: the binding signal was 0.925 RPM ratio (pull-down/input).

Regarding “GATGATTGTTCTCCCAGCTGATGAATTCTCACGTTCGAGTAAACAAATTTTCCTAATCTTTCTGTTCAAGCGCCATCTAC”, the binding signal was 0.76 RPM ratio (pull-down/input).

For “GATGATTGTTCTCCCAGCTGATGAATTCCATACATCGAGTAAACAAATTTTCCTAATCTTTCTGTTCAAGCGCCATCTAC”, the binding signal was 1.05 RPM ratio (pull-down/input).

On to “GATGATTGTTCTCCCAGCTGATGAATTTCGCACTTCGAGTAAACAAATTTTCCTAATCTTTCTGTTCAAGCGCCATCTAC”, for which the binding signal is 0.894 RPM ratio (pull-down/input).

For “GATGATTGTTCTCCCAGCTGATGAATTCAACGGGTCGAGTAAACAAATTTTCCTAATCTTTCTGTTCAAGCGCCATCTAC”, the binding signal is 0.894 RPM ratio (pull-down/input).

For the sequence “GATGATTGTTCTCCCAGCTGATGAATTGTTAATATCGAGTAAACAAATTTTCCTAATCTTTCTGTTCAAGCGCCATCTAC”, the binding signal was 1.46 RPM ratio (pull-down/input).

For “GATGATTGTTCTCCCAGCTGATGAATTCTGCCTATCGAGTAAACAAATTTTCCTAATCTTTCTGTTCAAGCGCCATCTAC”, the binding signal is 0.847 RPM ratio (pull-down/input).

Take “GATGATTGTTCTCCCAGCTGATGAATTTGCAGTTTCGAGTAAACAAATTTTCCTAATCTTTCTGTTCAAGCGCCATCTAC”: the binding signal is 1.02 RPM ratio (pull-down/input).

Regarding “GATGATTGTTCTCCCAGCTGATGAATTTACGGGATCGAGTAAACAAATTTTCCTAATCTTTCTGTTCAAGCGCCATCTAC”, the binding signal was 1.04 RPM ratio (pull-down/input).

For the sequence “GATGATTGTTCTCCCAGCTGATGAATTCCGACTTTCGAGTAAACAAATTTTCCTAATCTTTCTGTTCAAGCGCCATCTAC”, the binding signal was 0.821 RPM ratio (pull-down/input).

Take “GATGATTGTTCTCCCAGCTGATGAATTCTTAGAGTCGAGTAAACAAATTTTCCTAATCTTTCTGTTCAAGCGCCATCTAC”: the binding signal is 0.77 RPM ratio (pull-down/input).

As to “GATGATTGTTCTCCCAGCTGATGAATTGTCGAATTCGAGTAAACAAATTTTCCTAATCTTTCTGTTCAAGCGCCATCTAC”, the binding signal is 1.03 RPM ratio (pull-down/input).

Regarding “GATGATTGTTCTCCCAGCTGATGAATTGCATGATTCGAGTAAACAAATTTTCCTAATCTTTCTGTTCAAGCGCCATCTAC”, the binding signal was 1.21 RPM ratio (pull-down/input).

Consider “GATGATTGTTCTCCCAGCTGATGAATTAAATGAGTCGAGTAAACAAATTTTCCTAATCTTTCTGTTCAAGCGCCATCTAC”, for which the binding signal was 1.01 RPM ratio (pull-down/input).

For the sequence “GATGATTGTTCTCCCAGCTGATGAATTCGAACTGTCGAGTAAACAAATTTTCCTAATCTTTCTGTTCAAGCGCCATCTAC”, the binding signal is 0.846 RPM ratio (pull-down/input).

Regarding “GATGATTGTTCTCCCAGCTGATGAATTCAACGGTTCGAGTAAACAAATTTTCCTAATCTTTCTGTTCAAGCGCCATCTAC”, the binding signal was 0.859 RPM ratio (pull-down/input).

In the case of “GATGATTGTTCTCCCAGCTGATGAATTAGTCTTCTCGAGTAAACAAATTTTCCTAATCTTTCTGTTCAAGCGCCATCTAC”, the binding signal was 0.879 RPM ratio (pull-down/input).

“GATGATTGTTCTCCCAGCTGATGAATTTGCAGTGTCGAGTAAACAAATTTTCCTAATCTTTCTGTTCAAGCGCCATCTAC”: the binding signal is 0.987 RPM ratio (pull-down/input).
